This is an account of results in article PMC12136788.

Some of the results follow.

B1: chr20:35276351:35277713:-|three_prime_utr|ENSG00000126005|control|control|control (ssRNA)
RNA: GGGAGUUCUACAGUCCGACGAUCCUCCUCUCCCCACGUCCCUGCGUCUCUUACACCCCCUCCCACCCGAGGCUCCCCAGAGAUAGCAGAGAAUUCGAAGAGGUCGCCGGGGACUGGAAAGAAGUCCCGGCAGGGCCGCCUUCGCAACAGAGGAUUGAGCAUCA
B2: chr3:27376575:27376676:-|3pUTR|ENSG00000033867|msi1|FALSE|bound_elsewhere (ssRNA)
RNA: GGGAGUUCUACAGUCCGACGAUCCUAUAUAUAAGAAUAUUGUAUGUCAUGCUGUUUAUGUGUGACUACCGGGUUUUUAAAAGUAGUGUCUGGAGUUUGUAAUGAGCACCGUGGAGACUAUGUAUUUAAUGAAAUGCUCUCUUUCAACAGAGGAUUGAGCAUCA
B3: ENSG00000124766:be:win_551|CDS|ENSG00000124766|bound_else_gene|NA|bound_elsewhere_windowed (ssRNA)
RNA: GGGAGUUCUACAGUCCGACGAUCCGAGUGGCGGCGGCGCCAACUCCAAACCGGCGCAGAAAAAGAGCUGCGGCUCCAAAGUGGCGGGCGGCGCGGGCGGUGGGGUUAGCAAACCGCACGCCAAGCUCAUCCUGGCAGGCGGCGCAACAGAGGAUUGAGCAUCA
B4: chr19:36448979:36450001:-|CDS|ENSG00000186017|control|control|control (ssRNA)
RNA: GGGAGUUCUACAGUCCGACGAUCCAGAGUUCACAGCUUAUUAGUCAUCAUAGAAUUCAUACUAGUGAGAAACCCUAUGAAUAUAGGGAAUGUGGAAAGAACUUUAAUUAUGACCCACAACUUAUUCAGCAUCAAAAUUUGUACCAACAGAGGAUUGAGCAUCA
B5: chr22:29695108:29695209:+|3pUTR|ENSG00000186575|msi1|FALSE|unique (ssRNA)
RNA: GGGAGUUCUACAGUCCGACGAUCGUGUGUGUGUGUCUUGCACUCCAGAGCUGACCUCCACCGCCCAGCCUGGGAAGUCAUUGUAGGGAGUGAGACACUGAAGCCCUGAGAAGCCAGUGCCAUCAUCCCCACCCCGCCCAGGGUCAACAGAGGAUUGAGCAUCA
B6: chr15:83017406:83017507:-|3pUTR|ENSG00000064726|msi1|total|mutant (ssRNA)
RNA: GGGAGUUCUACAGUCCGACGAUCGGCCUAAUAAAAUGCCCAAGAAAAUAUUCAGUGCAUUUACCGAGAAGGAUAUUUUGCCGCCGUACCGUAAUGUGUUAUGCCGUACAGUUUUAAAGCUAUAAAUGGAAUUUUGUGUAAAUUCAACAGAGGAUUGAGCAUCA
B7: ENSG00000196876:stop:overlap|stop_codon|ENSG00000196876|stop_codon|NA|stop_codon (ssRNA)
RNA: GGGAGUUCUACAGUCCGACGAUCCAGAGGAAGGAAGAAGGGAAAGAGCCAAAAGACAAAAAGAGGUCAGAGAAUCCAAGUGUUAGAGGAGAACAAAAAUUCAGUAUUAUACAGAUCUAAAACUCGCAAGUGAAAGAUUGUUUACAACAGAGGAUUGAGCAUCA
B8: chr18:722677:722778:-|3pUTR|ENSG00000176105|msi1|total|mutant (ssRNA)
RNA: GGGAGUUCUACAGUCCGACGAUCCCGCGCCCAGCCUACAUUCACUUCUAAAGUCUAUGUAAUGGUGGUCAUUUUUUCCCUUUCCGAAUACAUUAAAUGGUUGAUUUGGGGAGGAAAACUUAUUCUGAAUAUUAACGGUGGUGACAACAGAGGAUUGAGCAUCA
B9: chr22:39522180:39522281:+|CDS|ENSG00000128272|msi1|total|mutant (ssRNA)
RNA: GGGAGUUCUACAGUCCGACGAUCGCUUACGUUGCCAUGAUCCCUCAGUGCAUAAAGGAGGAAGACACCCCUUCAGAUAAUGACCGUGGCAUCUGUAUGAGCCCAGAGUCCUAUCUGGGGUCUCCUCAGCACAGCCCCUCUACCCAACAGAGGAUUGAGCAUCA
B10: chr14:74942539:74942640:-|3pUTR|ENSG00000119630|msi1|FALSE|unique (ssRNA)
RNA: GGGAGUUCUACAGUCCGACGAUCGUGUAUUUAUUACCGUCACACUCUUCAGUGACUCCUGCUGGUACCUGCCCUCUAUUUAUUAGCCAACUGUUUCCCUGCUGAAUGCCUCGCUCCCUUCAAGACGAGGGGCAGGGAAGGACACAACAGAGGAUUGAGCAUCA
B11: chr20:56369402:56369507:-|3pUTR|ENSG00000087586|unk|total|mutant (ssRNA)
RNA: GGGAGUUCUACAGUCCGACGAUCAGAAGAGGCCAUGUGUCUCAGAGCUGUUAAGGGCUUAUUUUUUUAAAACAUUGGAGUCACCGCAUGUGUGUAAACUUUAAAUAUGCAAAUAAAUAAGUAUCUAUGUCUGUGUGGAGUGCUCAACAGAGGAUUGAGCAUCA
B12: chr9:37126384:37126485:+|CDS|ENSG00000147905|unk|FALSE|unique (ssRNA)
RNA: GGGAGUUCUACAGUCCGACGAUCUAUCGAGAUGAGUCAUCUAGUGAACUGAGUGUUGAUAGUGAGGUGGAAUUUCAACUCUAUAGCCAAAUUCAUUAUGCCCAAGAUCUUGAUGAUGUCAUCAGGGAGGAAGAGCAUGAAGAACAACAGAGGAUUGAGCAUCA
B13: chr1:231223762:231225466:-|three_prime_utr|ENSG00000143633|control|control|control (ssRNA)
RNA: GGGAGUUCUACAGUCCGACGAUCAUCUGGAUGAACCUACUGAUGAGUUCUGACAAGGACGCCUUGAAUGUAUGUGGUGUUGCUAGCCCAUUAGAGCGCUUCACUGUCUCUCAUUUAUCCUUGUCAAAGUAGGAUUUAGUAAACCAACAGAGGAUUGAGCAUCA
B14: ENSG00000070961:be:win_1251|CDS|ENSG00000070961|bound_else_gene|NA|bound_elsewhere_windowed (ssRNA)
RNA: GGGAGUUCUACAGUCCGACGAUCGAAGUUCUUCAUUAUUGGAGUUACAGUUUUAGUGGUCGCAGUGCCAGAAGGUCUUCCACUUGCAGUCACGAUCUCACUGGCUUAUUCAGUCAAAAAAAUGAUGAAAGAUAAUAACUUAGUCAACAGAGGAUUGAGCAUCA

The assay concerns the target MSI1 full-length (mouse, UniProt Q61474 1-362). Kind of assay: nsRBNS (natural sequence RNA bind-n-seq); RBNS binding buffer (assumed for nsRBNS): 25 mM Tris pH 7.5, 150 mM KCl, 3 mM MgCl2, 0.01% Triton X-100, 500 ug/ml BSA, 20 U/ml SUPERase-In, 4 C; UNK is unkempt and MSI1 is Musashi-1; names of the RNAs are library labels; protein concentration not given here; high values mean tight binding.
Chain of UniProt Q61474 (Q61474 whole entry): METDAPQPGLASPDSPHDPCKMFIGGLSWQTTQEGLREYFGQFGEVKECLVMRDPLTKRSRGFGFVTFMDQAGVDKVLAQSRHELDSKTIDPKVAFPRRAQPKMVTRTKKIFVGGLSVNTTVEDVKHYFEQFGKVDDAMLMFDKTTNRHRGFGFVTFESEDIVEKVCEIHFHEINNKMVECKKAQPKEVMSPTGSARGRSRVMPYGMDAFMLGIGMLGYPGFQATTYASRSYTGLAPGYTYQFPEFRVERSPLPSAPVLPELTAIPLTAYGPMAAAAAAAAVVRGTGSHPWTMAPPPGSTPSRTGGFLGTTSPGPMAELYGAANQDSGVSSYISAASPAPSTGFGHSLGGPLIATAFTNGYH
The molecule B1 displayed a binding signal of 0.918 enrichment R.

Molecule B2 came in with a binding signal of 0.444 enrichment R.

B3: the binding signal was determined as 0.429 enrichment R.

Molecule B4 came in with a binding signal of 4.15 enrichment R.

Molecule B5 came in with a binding signal of 0.488 enrichment R.

The molecule B6 had a binding signal of 0.489 enrichment R.

Take B7: the binding signal came out at 0.516 enrichment R.

In turn, B8 came in with a binding signal of 0.31 enrichment R.

Turning to B9, the binding signal turned out to be 0.521 enrichment R.

As to B10, the binding signal stood at 0.552 enrichment R.

As for B11, the binding signal was 0.219 enrichment R.

B12 gave a binding signal of 0.431 enrichment R.

In turn, B13 returned a binding signal of 0.632 enrichment R.

Molecule B14 registered a binding signal of 1.02 enrichment R.
